Data as given in patent US20100126880A1 (priority 2006, published 2010).

Assays:
[1] = tested on: double-stranded salmon sperm DNA
[2] = tested on: dsDNA

Row | Compound | decrease in ND absorption band at 363 and 387 nm [1] | decrease of fluorescence [2] | decrease in ND absorption bands at 362 and 383 nm [1] | red shifts of ND absorption bands [1]
1 | O=C1c2ccc3c4c(ccc(c24)C(=O)N1CCOCCOCCOCCCC1COc2cscc2O1)C(=O)N(CCOCCOCCOCCCC1COc2cscc2O1)C3=O (stereo not shown) [Compound 4c] | 42% | – | – | –
2 | N[3-(imidazol-1-yl)propyl]-N′-[8-((2,3-dihydrothieno[3,4-b][1,4]dioxin-3-yl)methoxy)-3,6-dioxaoctyl]-1,4,5,8-naphthalenetetracarboxydiimide complex with Os(bpy)2Cl2 [EDOT-ND-Os] | – | 50% | 40% | ~3 nm
